B1: Caulobacter ParB omega fusion; a variant is named by its letters at X, in order, B8GW30 (parent)
chain: MESVVVGEPGMSEGRRGLGRGLSALLGEVDAAPAQAPGEQLGGSREAPIEILQRNPDQPRRTFREEDLEDLSNSIREKGVLQPILVRPSPDTAGEYQIVAGERAWRAAQRAGLKTVPIMVRELDDLAVLEIGIIENVQRADLNVLEEALSYKVLMEKFERTQENIAQTIGKSXSHVANXMRLLXLPDEVQSYLVSGELTAXHARAIAAAADPVALAKQIIEGGLSVRETEALARKAPNLSAGKSKGGRPPRVKDTDTQALESDLSSVLGLDVSIDHRGSTGTLTITYATLEQLDDLCNRLTRGI

In all, about 81,000 sequences were measured (“one-hybrid fitness for binding NBS DNA”: median about -0.1, highest 2% from about 0.36 on). The list shows a part of the results.

Variants of B1 are the subject of this experiment. The experiment can be described thus: one-hybrid fitness for binding NBS DNA (the Noc-binding site; scaled: cognate 1, non-cognate 0); higher = stronger binding. The settings on record: with NBS DNA site. The method, boiled down: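 Bacterial one-hybrid selection in E. coli USO rpoZ- hisB- pyrF- with a HIS3 reporter carrying the site 19 bp from the promoter, screening Caulobacter ParB libraries with four specificity codons randomised (NNS). Cells grew 48 hours at 37°C on M9-minus-histidine plus 0.1 mM IPTG and 5 mM 3-AT. Plasmids before and after selection were Illumina-sequenced, three replicate libraries pooled, and variants under 10 reads dropped. Fitness is the log change in variant-to-wild-type read ratio, rescaled to cognate 1, non-cognate 0.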
Regarding TKWK, the “one-hybrid fitness for binding NBS DNA” value is no more than 0.2.
As for ADYS, the “one-hybrid fitness for binding NBS DNA” value was no more than 0.2.
Regarding PGCG, the “one-hybrid fitness for binding NBS DNA” value is no more than 0.2.
PHVP: the “one-hybrid fitness for binding NBS DNA” value was no more than 0.2.
In the case of YQQL it was no more than 0.2.
To VMLT belongs no more than 0.2; to HAAF, no more than 0.2.
AKQS: the “one-hybrid fitness for binding NBS DNA” value is no more than 0.2.
In the case of FANV, the “one-hybrid fitness for binding NBS DNA” value is no more than 0.2.
In the case of HGEG it was no more than 0.2.
As to CLFT, the “one-hybrid fitness for binding NBS DNA” value is no more than 0.2.
In the case of CTSS it was no more than 0.2; in that of SHLF, no more than 0.2; in that of AEVC, no more than 0.2.
To RPIC belongs no more than 0.2; to LDCR, no more than 0.2.
For the variant SNSP, the “one-hybrid fitness for binding NBS DNA” value is no more than 0.2.
In the case of PVPT it was no more than 0.2; in that of RQSM, no more than 0.2.
On to DLVL, for which the “one-hybrid fitness for binding NBS DNA” value was no more than 0.2.
As for HYNC, the “one-hybrid fitness for binding NBS DNA” value is no more than 0.2.
To IAKC belongs no more than 0.2; to RFFS, no more than 0.2; to KSLM, no more than 0.2.
In the case of WHTT it was no more than 0.2; in that of QLEE, no more than 0.2.
QCRW: the “one-hybrid fitness for binding NBS DNA” value amounted to 0.371.
For the variant SITC, the “one-hybrid fitness for binding NBS DNA” value was no more than 0.2.
Turning to TRRT, the “one-hybrid fitness for binding NBS DNA” value worked out at 0.526.
On to HYLT, for which the “one-hybrid fitness for binding NBS DNA” value was no more than 0.2.
In the case of DHHS it was no more than 0.2; in that of PLQV, no more than 0.2.
In the case of LHEE it was no more than 0.2; in that of IPNY, no more than 0.2.
Consider MNMT, for which the “one-hybrid fitness for binding NBS DNA” value was no more than 0.2.
For the variant RPAF, the “one-hybrid fitness for binding NBS DNA” value was no more than 0.2.
With DQPG, the “one-hybrid fitness for binding NBS DNA” value is no more than 0.2.
To RYPH belongs no more than 0.2; to ADQW, no more than 0.2.
As to QSQG, the “one-hybrid fitness for binding NBS DNA” value is no more than 0.2.
In the case of YTPF it was no more than 0.2; in that of HEYW, no more than 0.2; in that of QGPC, no more than 0.2.
Consider INRY, for which the “one-hybrid fitness for binding NBS DNA” value was no more than 0.2.
For VRMF, the “one-hybrid fitness for binding NBS DNA” value was no more than 0.2.
Turning to SSEV, the “one-hybrid fitness for binding NBS DNA” value is no more than 0.2.
With QFRI, the “one-hybrid fitness for binding NBS DNA” value was no more than 0.2.
Turning to KLHG, the “one-hybrid fitness for binding NBS DNA” value is no more than 0.2.
Consider RRRG, for which the “one-hybrid fitness for binding NBS DNA” value stood at 0.497.
On to VMYY, for which the “one-hybrid fitness for binding NBS DNA” value is no more than 0.2.
For the variant QQMV, the “one-hybrid fitness for binding NBS DNA” value is no more than 0.2.
In the case of LEFR it was no more than 0.2; in that of PRSN, no more than 0.2.
For the variant QMLE, the “one-hybrid fitness for binding NBS DNA” value is no more than 0.2.
As for RFAC, the “one-hybrid fitness for binding NBS DNA” value is no more than 0.2.
As to RTFH, the “one-hybrid fitness for binding NBS DNA” value is no more than 0.2.
For VIFT, the “one-hybrid fitness for binding NBS DNA” value was no more than 0.2.
In the case of LICG it was no more than 0.2; in that of KRDM, no more than 0.2.
To EWQP belongs no more than 0.2.
For the variant GRSG, the “one-hybrid fitness for binding NBS DNA” value was no more than 0.2.
To SITN belongs no more than 0.2.
Regarding IIHR, the “one-hybrid fitness for binding NBS DNA” value is no more than 0.2.
Consider HPDW, for which the “one-hybrid fitness for binding NBS DNA” value was no more than 0.2.
In the case of RVNR it was 0.55; in that of SWDR, no more than 0.2.
HRTF: the “one-hybrid fitness for binding NBS DNA” value is no more than 0.2.
To GLTV belongs no more than 0.2; to VVEP, no more than 0.2.
In the case of QYRH, the “one-hybrid fitness for binding NBS DNA” value was 0.541.
To NDYD belongs no more than 0.2; to HGAA, no more than 0.2.
With DESE, the “one-hybrid fitness for binding NBS DNA” value was no more than 0.2.
In the case of AQAA it was no more than 0.2; in that of GRDK, no more than 0.2.
In the case of HFNR, the “one-hybrid fitness for binding NBS DNA” value was no more than 0.2.
With VAYA, the “one-hybrid fitness for binding NBS DNA” value is no more than 0.2.
To SHNH belongs no more than 0.2; to RYLN, no more than 0.2; to KIQG, no more than 0.2.
In the case of LPCI, the “one-hybrid fitness for binding NBS DNA” value was no more than 0.2.
To GDHS belongs no more than 0.2; to WLAT, no more than 0.2.
Turning to RHDP, the “one-hybrid fitness for binding NBS DNA” value is no more than 0.2.

For the origin of these results see a collection of fitness landscapes (doi:10.1016/j.celrep.2020.107928).
